# In paper PMC4336329 (PLoS ONE, 2015):
# The whole screen tested about 310,000 compounds, of which about 2,200 (0.71%) showed an effect of 50% or more. The effect is printed as a negative number. The list shows a part of the results.
# Biological target: human ether-à-go-go-related gene (hERG) potassium channel (human, UniProt Q12809)
# Experiment: primary screen, population patch clamp on CHO cells stably expressing hERG
# human ether-à-go-go-related gene (hERG) potassium channel, sequence (Q12809 whole entry, looked up): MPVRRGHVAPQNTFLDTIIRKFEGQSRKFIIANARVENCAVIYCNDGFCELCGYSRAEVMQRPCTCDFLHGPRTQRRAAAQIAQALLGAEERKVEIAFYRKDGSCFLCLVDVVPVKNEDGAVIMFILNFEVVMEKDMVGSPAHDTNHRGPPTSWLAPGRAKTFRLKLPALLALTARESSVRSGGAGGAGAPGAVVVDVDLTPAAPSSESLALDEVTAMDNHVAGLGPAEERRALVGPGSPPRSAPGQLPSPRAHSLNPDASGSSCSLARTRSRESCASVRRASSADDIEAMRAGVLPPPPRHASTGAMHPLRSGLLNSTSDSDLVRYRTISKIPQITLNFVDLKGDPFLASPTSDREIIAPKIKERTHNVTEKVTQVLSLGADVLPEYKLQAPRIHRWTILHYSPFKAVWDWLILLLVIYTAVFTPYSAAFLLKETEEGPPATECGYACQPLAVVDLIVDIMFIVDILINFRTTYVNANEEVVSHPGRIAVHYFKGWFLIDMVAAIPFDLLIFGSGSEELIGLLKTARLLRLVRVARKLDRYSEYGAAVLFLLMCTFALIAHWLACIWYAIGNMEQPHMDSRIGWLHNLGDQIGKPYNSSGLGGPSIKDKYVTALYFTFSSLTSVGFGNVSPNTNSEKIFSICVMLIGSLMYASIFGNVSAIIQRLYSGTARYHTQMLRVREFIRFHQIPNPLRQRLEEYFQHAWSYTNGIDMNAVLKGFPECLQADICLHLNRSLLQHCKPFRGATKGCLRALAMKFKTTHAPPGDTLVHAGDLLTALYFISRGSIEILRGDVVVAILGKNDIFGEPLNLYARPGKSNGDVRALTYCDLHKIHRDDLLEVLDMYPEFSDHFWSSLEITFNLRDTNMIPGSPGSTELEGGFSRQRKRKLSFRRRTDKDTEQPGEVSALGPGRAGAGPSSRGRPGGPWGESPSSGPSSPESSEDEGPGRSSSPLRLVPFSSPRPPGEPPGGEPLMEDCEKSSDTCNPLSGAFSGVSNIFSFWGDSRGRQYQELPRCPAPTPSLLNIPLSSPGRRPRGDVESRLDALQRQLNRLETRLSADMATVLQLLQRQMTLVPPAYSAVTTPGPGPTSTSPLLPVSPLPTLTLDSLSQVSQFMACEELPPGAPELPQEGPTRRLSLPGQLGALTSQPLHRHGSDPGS
row,Compound,"hERG current change (%, negative = inhibition) at 1uM [%]"
1,CCOc1cc(/C=C2/C(=O)NN(c3cccc(Cl)c3)C2=O)ccc1O,11.6
2,CC(C)OCCCNC(=O)c1cc(S(=O)(=O)N2CCCCC2)c[nH]1,8.79
3,CC(C)CN(CC(C)C)S(=O)(=O)N1CCC(C(=O)N2CCc3ccccc3C2)CC1,11.8
4,CCC(C(=O)OCC(=O)N(CCOC)c1c(N)n(Cc2ccccc2)c(=O)[nH]c1=O)c1ccccc1 (centres unmarked),11.1
5,O=C(NC(Cc1c[nH]c2ccccc12)c1nnc2n1CCCCC2)c1ccccc1 (centres unmarked),14.6
6,Cc1nc(N)nc(N/N=C/c2c(F)cccc2Cl)n1,11.4
7,CC1=NN(Cc2cc(C(C)(C)C)c(O)c(C(C)(C)C)c2)C(=O)C1,19.1
8,Cc1nn(C(C)C(=O)NCCN2CCCC2)c(=O)c2c1sc1ccccc12 (centres unmarked),10.5
9,CCCc1nc(SCC(=O)N2CCCCCC2)c2c(=O)n(C)c(=O)n(C)c2n1,-3.28
10,O=C(CCc1ccccc1)NNC(=O)Nc1cccc(Cl)c1,3.21
11,O=C(Nc1cccnc1)c1ccc(Cl)c([N+](=O)[O-])c1,12.2
12,COc1ccc(C(C(=O)NC2CCCC2)N(Cc2ccc(C)cc2)C(=O)c2ccn[nH]2)cc1OC (centres unmarked),8.51
13,CCOC(=O)c1cc(CC)sc1NC(=O)c1cc(OC)c(OC)c(OC)c1,12.4
14,N#CCC(=O)NCCCc1ccccc1,8.55
15,O=C(Cc1ccccc1)NN1C(=O)C2C3C=CC([C@@H]2C1=O)C31CC1 (some centres unmarked),8.6
16,Cc1ccc(C)c(C(=O)N(C)CC(=O)Nc2ccccc2C(F)(F)F)c1,-0.294
17,CC(C)NS(=O)(=O)c1ccc(OCC(=O)N2CCN(Cc3ccccc3)CC2)cc1,9.08
18,Cc1ccc(-n2c(SCC(=O)NCC3CCCO3)nc3n[nH]c(C)c3c2=N)cc1Cl (centres unmarked),3.14
19,CCOC(=O)C(O)(c1cn(C)c2ccccc12)C(F)(F)F (centres unmarked),15.8
20,Cc1ccc(/C(O)=C2/C(=O)C(=O)N(CCN3CCOCC3)C2c2ccccn2)cc1 (centres unmarked),15.7
21,CC(=O)c1ccc2c3c(cccc13)C(=O)N(c1c(C)nn(C)c1C)C2=O,12.6
22,CC(=O)c1ccc(N2C(=NC(=O)C3CCCCC3)SC3CS(=O)(=O)CC32)cc1 (centres unmarked),13.1

row,Compound,"hERG current change (%, negative = inhibition) at 1uM [%]"
1,CN(C)C=O.CNc1nc2[nH]c(=O)c3c(c2s1)OC(N)=C(C#N)C3c1ccccc1 (centres unmarked),7.98
2,COc1ccc(Cl)cc1S(=O)(=O)N1CCN(CC(=O)C(C)(C)C)CC1,6.11
3,CC(=O)NCCNC(=O)c1ccc(CSc2ccc(Cl)cc2)cc1,2
4,CCOC(=O)c1c(C)[nH]c(C)c1C(=O)COc1ccc(NC(=O)c2ccco2)cc1,10.9
5,CC(=O)c1cc2c(cc1N/C(=N/S(=O)(=O)c1ccc(C)cc1)c1ccccc1)OCO2,13.4
6,O=C(Nc1ccc(F)cc1)C(c1ccccc1)N1CCN(CC(=O)N2CCCC2)CC1 (centres unmarked),-45.5
7,CC(=O)N1CCN(CC(=O)NC(=O)Nc2ccc3c(c2)OCCO3)CC1,8.03
8,CC(C)(C)c1ccc(C(=O)NCC(=O)OCc2ccc([N+](=O)[O-])cc2)cc1,-3.27
9,C#CCOCCOCCOCCNc1nc(N2CCN(C(=O)[C@H]([C@@H](C)O)n3cc(CCCC[NH3+])nn3)CC2)nc(N2CCN(C(=O)[C@H](CCCC[NH3+])n3cc(CCCC)nn3)CC2)n1.[Cl-],14.3
10,COc1cc(NS(=O)(=O)c2ccc3c(c2)n(C)c(=O)n3C)cc(OC)c1,5.69
11,O=C(COC(=O)/C=C/C(=O)OCC(=O)NC12CC3CC(CC(C3)C1)C2)NC12CC3CC(CC(C3)C1)C2,17
12,CC[C@H](C)[C@H](NC(N)=O)C(=O)NCCc1ccc(OC)c(OC)c1,9.44
13,Cc1cc(C(=O)COC(=O)c2ccco2)c(C)n1Cc1ccco1,11.7
14,CCCCOC(=O)Nc1ccc(S(=O)(=O)Nc2nc(C)cc(C)n2)cc1,13.5
15,COCC(=O)N(Cc1cc2ccccc2[nH]c1=O)c1ccccc1OC,11
16,CS(=O)(=O)Cc1ccc(C(=O)N2CCCC2c2cccs2)cc1 (centres unmarked),13.7
17,COc1ccc(NC(=O)CCNC(=O)c2ccccc2Cl)cc1OC,-1.1
18,NS(=O)(=O)c1ccc(NC(=O)CSc2nnc(-c3cnccn3)n2-c2ccccc2)cc1,8.31
19,Nc1ccccc1N1CCOCC1,10.4
20,O=[N+]([O-])c1ccc2[nH]c(O)c(N=NC(=S)NCC3CCCO3)c2c1 (centres unmarked),5.35
21,Nc1ccc(Sc2cc(Cl)nc(N)n2)cc1,5.49
22,Oc1oc(-c2ccc(Br)cc2)nc1C=Nc1ccc(Br)cn1,9.89
